From PubChem BioAssay AID504332 (National Center for Advancing Translational Sciences (NCATS), 2011)
Screen size: about 350,000 compounds; about 31,000 (8.9%) were called active. The shares of active, inactive and inconclusive entries below differ from those in the screen. Calls follow the shape of the dose curve; as a rule, active = well fitted inhibition curve with a large enough effect; inconclusive = small, poorly fitted or top-dose-only effect; inactive = no such curve, though single readings can be large or run the other way. Potencies of inconclusive entries are doubtful fits and often do not repeat.

Each compound was assayed against Histone-lysine N-methyltransferase EHMT2 (Homo sapiens) (UniProt Q96KQ7) (assay: qHTS Assay for Inhibitors of Histone Lysine Methyltransferase G9a). Conditions: G9a H3K9 monomethylation, AlphaScreen, 2 h; activity, negative = inhibition: at 59 µM (top of the series) unless noted.
UniProt Q96KQ7, sequence (Q96KQ7 whole entry, looked up): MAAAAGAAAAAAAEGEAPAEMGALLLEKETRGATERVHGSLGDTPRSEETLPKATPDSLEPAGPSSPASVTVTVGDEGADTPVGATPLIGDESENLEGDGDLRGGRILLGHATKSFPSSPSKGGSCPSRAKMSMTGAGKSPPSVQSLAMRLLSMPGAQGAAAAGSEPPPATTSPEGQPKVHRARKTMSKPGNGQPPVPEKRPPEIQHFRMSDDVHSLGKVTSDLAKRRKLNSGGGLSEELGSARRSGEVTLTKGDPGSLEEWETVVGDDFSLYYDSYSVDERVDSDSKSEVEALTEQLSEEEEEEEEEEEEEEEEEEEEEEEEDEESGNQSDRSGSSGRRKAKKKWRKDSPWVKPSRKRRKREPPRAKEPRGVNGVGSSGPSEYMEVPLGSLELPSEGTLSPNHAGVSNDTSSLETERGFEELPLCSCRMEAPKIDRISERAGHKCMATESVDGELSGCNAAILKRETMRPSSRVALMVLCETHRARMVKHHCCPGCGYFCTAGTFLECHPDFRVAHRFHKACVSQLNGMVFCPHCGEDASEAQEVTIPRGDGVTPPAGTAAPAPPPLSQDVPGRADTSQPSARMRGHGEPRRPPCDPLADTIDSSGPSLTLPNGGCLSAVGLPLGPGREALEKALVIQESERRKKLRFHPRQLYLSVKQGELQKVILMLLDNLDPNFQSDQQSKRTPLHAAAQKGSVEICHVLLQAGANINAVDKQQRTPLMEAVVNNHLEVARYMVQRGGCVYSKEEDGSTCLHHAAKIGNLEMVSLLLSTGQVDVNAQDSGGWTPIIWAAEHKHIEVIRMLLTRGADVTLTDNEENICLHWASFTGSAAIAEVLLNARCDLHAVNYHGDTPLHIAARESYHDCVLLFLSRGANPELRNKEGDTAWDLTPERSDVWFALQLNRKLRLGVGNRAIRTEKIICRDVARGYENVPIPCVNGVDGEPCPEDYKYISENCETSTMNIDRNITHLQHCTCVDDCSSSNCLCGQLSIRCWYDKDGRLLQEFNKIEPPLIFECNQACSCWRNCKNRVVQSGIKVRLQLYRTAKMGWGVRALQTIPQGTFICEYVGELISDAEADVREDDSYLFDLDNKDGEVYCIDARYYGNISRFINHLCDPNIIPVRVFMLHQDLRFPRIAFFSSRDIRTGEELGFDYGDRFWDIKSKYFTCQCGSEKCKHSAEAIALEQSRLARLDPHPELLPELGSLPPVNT
Summary of the method: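 Quantitative HTS format: methyltransferase activity on a biotin-tagged H3K9 peptide is measured by AlphaScreen, using a rabbit anti-monomethyl-H3K9 antibody with streptavidin donor and anti-IgG acceptor beads. Final levels are 20 nM enzyme, 500 nM peptide, 20 uM SAM; 2 h RT.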
% is scaled to controls: 0 for no effect and ±100 for the full control effect; potency is read from the fitted curve at half-maximal effect; tags tell the direction and shape of the fitted curve.
Also: nearly all actives have a fitted effect of over 75% in size.

Compound	Potency	activity, negative = inhibition
COc1cccc(CN2CC(C(=O)N(C)Cc3[nH]c4ccccc4c3C)CCC2=O)c1 (stereo unspecified)	inconclusive: 89.1 µM [inhibitor, single point]	
O=S(=O)(Nc1ccc2nc(N3CCOCC3)sc2c1)c1ccc(Cl)cc1	active: 10 µM	
COc1ccc(Cl)cc1NC(=O)CN(C)C(=O)CCc1nc2ccccc2c(=O)[nH]1		inactive: -1.35% [at 12.7 µM]
COc1ccc(-c2csc(NC(=O)c3cccs3)c2C(=O)O)cc1OC	inconclusive: 22.4 µM [inhibitor, partial curve]	
CCN(CC)CCOC(=O)C1(c2ccc(OC)c(OC)c2)CCCC1	inconclusive: 89.1 µM [inhibitor, single point]	
CC(C)CNS(=O)(=O)c1ccc(CCC(=O)NCC2CCCO2)cc1 (stereo unspecified)	inconclusive: 11.2 µM [inhibitor, single point]	
O=C(c1cc(COc2ccc(F)c(F)c2)on1)N1CCOCC1		inactive: -4.01% [at 0.501 µM]
O=S(=O)(c1ccccc1)N1CCN(C(=S)Nc2ccccc2)CC1	inconclusive: 50.1 µM [inhibitor, partial curve]	
COC(=O)c1c(-c2cc(OC)c(OC)c(OC)c2)c2ccc(OCc3ccccn3)cc2c(=O)n1-c1ccc(N)cc1	inconclusive: 50.1 µM [inhibitor, partial curve]	
Cc1ccc(C(=O)Nc2ccc(C)c(S(=O)(=O)Nc3ccccc3Cl)c2)s1	inconclusive: 0.282 µM [inhibitor, partial curve, poor fit]	
CC(=O)N1c2ccccc2C(=O)C1N1CCN(c2cccc(C)c2C)CC1 (stereo unspecified)	inactive	
O=C(O)CCC(=O)Nc1sc2c(c1C(=O)NCc1ccccc1)CCCC2	inconclusive: 89.1 µM [inhibitor, single point]	
O=C(Nc1ccc(Oc2ccc(Cl)cc2)cc1)c1ncn[nH]1	inactive	
CC1CC(C)CN(C(=O)c2ccc(-c3ccc([N+](=O)[O-])cc3)o2)C1 (stereo unspecified)	active: 11.2 µM	
COc1cc(C2Nc3ccccc3C(=O)N2c2ccccc2)c(Br)cc1OCC(=O)O (stereo unspecified)	inconclusive: 89.1 µM [inhibitor, single point]	
N#CCCn1cc(C(CC(=O)c2ccc(Br)cc2)C(=O)O)c2ccccc21 (stereo unspecified)	inconclusive: 89.1 µM [inhibitor, single point]	
S=c1[nH]nc(-c2ccco2)n1/N=C/c1ccc(Cl)c(Cl)c1	active: 1.58 µM	
CN(C)/C=C1/NC(=S)NC1=O	active: 35.5 µM	
CCOC(=O)c1[nH]c2ccc(OC)cc2c1NC(=O)c1cccc(OC)c1	inconclusive: 100 µM [inhibitor, single point]	
Cc1nn(CC(=O)Nc2ccc(N(C)C)cc2)c(C)c1[N+](=O)[O-]	inconclusive: 28.2 µM [inhibitor, single point]	
CC1CCCN(C2=C(Cl)C(=O)N(c3cccc(Cl)c3)C2=O)C1 (stereo unspecified)	inactive	
CC(CNC(=O)c1sc2ncccc2c1-n1cccc1)c1ccccc1 (stereo unspecified)	inactive	
COc1ccc(N=c2scc(C)n2CCCN2CCCC2=O)cc1	inconclusive: 79.4 µM [inhibitor, single point]	
Cc1nnc(NC(=O)c2cc(-c3ccncc3)nc3c(C)cccc23)s1	inconclusive: 39.8 µM [inhibitor, single point]	

Compound	Potency	activity, negative = inhibition
Cc1ccccc1CSc1nnc([C@@H]2CCCN2)o1	inconclusive: 70.8 µM [inhibitor, single point]	
Cc1c(C(=O)N2CCN(C(=O)c3ccco3)CC2)sc2nc(-c3ccc(F)cc3)cn12	active: 39.8 µM	
Cc1ccc(OCC(=O)N2CCC(N3CC(C)CC(C)C3)CC2)cc1 (stereo unspecified)	active: 25.1 µM	
Cc1ccc(C)c(OCCCC(=O)Nc2ccc(N3CCOCC3)cc2)c1	active: 39.8 µM	
CCOc1ccc(N2C(=O)CC(Sc3nccc(C)n3)C2=O)cc1 (stereo unspecified)	inactive	
O=C(N/N=C/c1ccc2cccc(OCc3ccccc3)c2n1)c1ccc(Cl)cc1	inconclusive: 31.6 µM [inhibitor, partial curve, poor fit]	
O=[N+]([O-])c1ccc(/C=N/n2c(C3CCCCC3)n[nH]c2=S)cc1	inconclusive: 2 µM [inhibitor, partial curve, poor fit]	
Cc1ccc2nc(NC(=O)c3ccc4ncsc4c3)sc2c1	inconclusive: 28.2 µM [inhibitor, single point]	
O=C(O)c1ccc(CSc2nnc(-c3ccccc3)n2-c2ccccc2)cc1	inactive	
CSc1ccc(/C=N/N2CCN(Cc3ccccc3Cl)CC2)cc1	active: 14.1 µM	
O=C(OCc1ccccc1)[C@@H]1COC(c2ccc(Br)cc2)=N1	inactive	
O=C(O)CC(CNS(=O)(=O)c1cccc2nsnc12)c1ccccc1 (stereo unspecified)	inconclusive: 70.8 µM [inhibitor, partial curve]	
NC(=O)C1CCN(C(=O)c2cnn(-c3ccccc3)c2NC(=O)c2ccco2)CC1	inconclusive: 56.2 µM [inhibitor, partial curve, poor fit]	
Cc1cc2oc(C(=O)N3CCN(CCc4ccccn4)CC3)c(C)c2cc1C	inactive	
COc1cc(NC(=S)N2CCN(C)CC2)cc(OC)c1		inactive: -1.83% [at 0.501 µM]
Cc1ccc(CSC2=Nc3ccccc3C3=NC(CCC(=O)NCCc4ccccc4)C(=O)N23)cc1 (stereo unspecified)	inconclusive: 0.891 µM [inhibitor, partial curve, poor fit]	
Cc1cccc(-n2ccnc2SCC(=O)N2CCCc3ccccc32)c1C	inconclusive: 79.4 µM [inhibitor, single point]	
COc1ccc(OCCC(=O)c2ccc(OC)cc2)cc1	inactive	
Cc1csc(=O)n1CCC(=O)OCC(=O)NCc1ccc(Cl)cc1Cl	inconclusive: 44.7 µM [inhibitor, partial curve, poor fit]	
O=C(O)c1cc(C2CC2)nc2ccccc12	inconclusive: 50.1 µM [inhibitor, partial curve]	
COc1ccc(OC)c(NC(=O)CSc2sc3c(O)cc(=O)[nH]c3c2C#N)c1	inconclusive: 89.1 µM [inhibitor, single point]	
Clc1ccc2c(c1)C(N1CCNCC1)Cc1ccccc1S2 (stereo unspecified)	inconclusive: 35.5 µM [inhibitor, single point]	
CCOCC(=O)Nc1nc2c(s1)C(=O)CC(C)(C)C2	inconclusive: 14.1 µM [inhibitor, partial curve]	
O=C(CNC(=O)c1ccco1)NCC(=O)OCc1cccc(Cl)c1	inactive	

Compound	Potency	activity, negative = inhibition
CCOC(=O)c1cc(CC)sc1/N=C/c1c(O)ccc2ccccc12	active: 4.47 µM	
CC#CC(=O)N1CCC(n2nccc2NC(=O)c2ccc3c(c2)OCO3)CC1	inactive	
COc1ccccc1C(=O)NC(=O)COC(=O)c1cnc(C)cn1	inconclusive: 79.4 µM [inhibitor, partial curve, poor fit]	
O=C(c1ccc(S(=O)(=O)Nc2ccccc2F)cc1)N1CCN(c2ccccc2O)CC1	inconclusive: 50.1 µM [inhibitor, partial curve]	
Cc1cccc(NC(=O)C2CCCN(S(=O)(=O)c3cccc4nonc34)C2)c1C (stereo unspecified)	inconclusive: 6.31 µM [inhibitor, single point]	
O=C(/C=C/c1cccc(Br)c1)Nc1nn[nH]n1	inactive	
O=C(Nc1ccccc1)N1CCc2ccccc2C1	inactive	
Cc1ccc(C)c(-c2nnc(NC(=O)CCS(=O)(=O)c3ccc(F)cc3)o2)c1	inactive	
COc1ccc(NC(=S)NNC(=O)CCn2cc([N+](=O)[O-])cn2)cc1	inconclusive: 39.8 µM [inhibitor, single point]	
O=C(Nc1c(F)cc(F)cc1Br)c1cc(-c2ccc(O)cc2)on1	inconclusive: 100 µM [inhibitor, single point]	
O=C(Nc1ccc(Br)cn1)c1coc(=O)c(Br)c1	active: 50.1 µM	
O=C(CCNC(=O)c1ccc(Br)cc1)Nc1cccc(S(=O)(=O)N2CCCCCC2)c1	inconclusive: 50.1 µM [inhibitor, partial curve]	
COc1ccc(NC(=O)C2CCCN(c3nn4c(=O)cc(C)nc4s3)C2)cc1 (stereo unspecified)	inconclusive: 89.1 µM [inhibitor, single point]	
Cc1[nH]c2ccccc2c1-c1nc2ccccc2[nH]1	inconclusive: 11.2 µM [inhibitor, partial curve, poor fit]	
COc1ccc(-c2cn3c(n2)sc2cc(C(=O)NC4CCCc5ccccc54)ccc23)cc1 (stereo unspecified)	inactive	
CN(C)c1ccc(/C=C/c2nc3ccccc3c(=O)[nH]2)cc1	inactive	
COc1cc(OC)c2c(-c3ccccc3)cc(=O)oc2c1C(CCN1CCCCC1)c1ccc(N(C)C)cc1 (stereo unspecified)	inconclusive: 35.5 µM [inhibitor, single point]	
CC1(C)CC(=O)C(C(=O)c2ccccc2)C(=O)C1Cl (stereo unspecified)	inconclusive: 79.4 µM [inhibitor, partial curve]	
COc1cc2c(cc1NC(=O)COc1cc(C)ccc1C)oc1ccccc12	inactive	
CCC(=O)N(Cc1cc2c(C)ccc(C)c2[nH]c1=O)C1CCCCC1	inconclusive: 70.8 µM [inhibitor, partial curve, poor fit]	
CCc1nnc(NC(=O)c2cc(-c3ccc(C)o3)nc3ccccc23)s1	inconclusive: 2 µM [inhibitor, partial curve, poor fit]	
O=C(c1cc([N+](=O)[O-])ccc1Cl)N1CCN(c2ccccc2)CC1	inconclusive: 28.2 µM [inhibitor, single point]	
O=C(O)c1cccc(NN=C2c3ccccc3-c3ccccc32)c1	active: 39.8 µM	
